PubChem BioAssay AID588453 (National Center for Advancing Translational Sciences (NCATS), 2011)
Out of some 390,000 compounds screened, about 4,000 (1%) were called active. The shares of active, inactive and inconclusive entries below differ from those in the screen. Calls follow the shape of the dose curve; as a rule, active = well fitted inhibition curve with a large enough effect; inconclusive = small, poorly fitted or top-dose-only effect; inactive = no such curve, though single readings can be large or run the other way. Where the call is inconclusive, the potency comes from a doubtful curve fit.

Each compound was assayed against Thioredoxin reductase 1, cytoplasmic (Rattus norvegicus) (UniProt O89049) (assay: qHTS Assay for Inhibitors of Mammalian Selenoprotein Thioredoxin Reductase 1 (TrxR1): qHTS). Conditions: recombinant rTrxR1, NADPH fluorescence consumption, selenite substrate; series mostly up to 114 µM.
In short: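 Rat TrxR1 (90 nM in the dispensed reagent) was pre-reduced with 400 uM NADPH for 5 min at room temperature, then incubated with compound for 15 min. After 400 uM selenite was added, NADPH fluorescence (Ex 340/Em 450 nm) was followed for 8 min.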
Also: nearly all actives have a fitted effect of over 65% in size.
Potency is read from the fitted curve at half-maximal effect; tags tell the direction and shape of the fitted curve.

Chain of UniProt O89049 (O89049 whole entry, looked up): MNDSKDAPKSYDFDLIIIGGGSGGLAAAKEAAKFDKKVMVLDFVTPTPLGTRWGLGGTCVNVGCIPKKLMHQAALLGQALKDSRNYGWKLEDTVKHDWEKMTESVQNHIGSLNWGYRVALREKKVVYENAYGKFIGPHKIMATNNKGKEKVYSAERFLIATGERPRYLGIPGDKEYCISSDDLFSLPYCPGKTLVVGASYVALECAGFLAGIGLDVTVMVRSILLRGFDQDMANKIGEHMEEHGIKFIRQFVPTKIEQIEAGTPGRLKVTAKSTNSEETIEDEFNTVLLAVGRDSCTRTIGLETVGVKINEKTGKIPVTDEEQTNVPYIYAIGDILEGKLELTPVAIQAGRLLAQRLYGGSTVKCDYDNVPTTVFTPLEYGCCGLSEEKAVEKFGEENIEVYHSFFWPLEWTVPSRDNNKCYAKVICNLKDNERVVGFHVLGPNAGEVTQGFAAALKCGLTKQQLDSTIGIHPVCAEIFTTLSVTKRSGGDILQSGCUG

SMILES	Potency
O=C(NCCCc1nc2ccccc2n1Cc1ccccc1F)c1ccco1	inactive
Cc1ccc(C(O)(COC(=O)C(C)C)COC(=O)C(C)C)c(O)c1	inconclusive: 28.2 µM [inhibitor, single point]
CCn1c(C)cc(/C=C2\NC(=O)N(CC(=O)Nc3cccc(C)c3)C2=O)c1C	inconclusive: 25.1 µM [inhibitor, single point]
Cc1ccc(C(=O)N2CC(=O)Nc3ccc(F)cc3C2c2ccccc2)cc1 (stereo not given)	inactive
Cc1ccc(SCCNC(=O)C(CO)(CO)CO)cc1	inactive
CC(c1n[nH]c(=S)n1-c1ccc(Cl)cc1)N(C)C (stereo not given)	inconclusive: 7.94 µM [inhibitor, partial curve, poor fit]
COc1cc(OC)cc(-c2nc3nc(C)c(CCC(=O)Nc4cc(F)ccc4F)c(C)n3n2)c1	inactive
CC[C@@]1(O)C(=O)OCc2c1cc1n(c2=O)Cc2cc3c(N)cccc3nc2-1	inactive
Cc1ccc(NC(=S)Nc2ccc(S(=O)(=O)N3CCOCC3)cc2)cc1S(=O)(=O)N1CCOCC1	inconclusive: 25.1 µM [inhibitor, single point]
CCCCCCn1c(SCC#N)nc2ccccc2c1=O	inconclusive: 89.1 µM [inhibitor, single point]
Cc1oc(-c2nc3ccccc3n2C)cc1C(=O)c1ccccc1	inconclusive: 11.2 µM [inhibitor, single point]
Oc1cc2cc(-c3csc(-c4ccc(F)cc4)n3)cc3c2n1CCC3	inactive
CCCc1nn2c(=O)cc(CSCC(=O)Nc3nnc(CC)s3)nc2s1	inconclusive: 6.31 µM [inhibitor, single point]
CCOC(=O)c1c(NC(=O)CCS(=O)(=O)c2ccccc2)sc2c1CCN(C(C)C)C2	inconclusive: 89.1 µM [inhibitor, partial curve, poor fit]
COc1ccc(NC(=O)C(c2ccc(OC)cc2)N(C)C(=O)CC2NC(=O)NC2=O)cc1 (stereo not given)	inactive
CCOc1ccc(NC(=O)CCS(=O)(=O)c2ccc3c(c2)n(C)c(=O)c(=O)n3C)cc1	inactive
O=C(CCCn1c(=S)[nH]c2ccsc2c1=O)NC1CCCCC1	inconclusive: 15.8 µM [inhibitor, partial curve]
Cc1nn(-c2ccccc2)c2c1C(c1ccco1)C(C#N)=C(N)O2 (stereo not given)	inconclusive: 50.1 µM [inhibitor, partial curve]
C=CCn1cc(C(=O)N2CCN(C)CC2)c(=O)c2cc(S(=O)(=O)N(CC)CC)ccc21	inconclusive: 79.4 µM [inhibitor, single point]
CCOC(=O)C(=Cc1ccc(-n2ccnc2)cc1)C(=O)OCC	active: 20 µM
Cc1sc2ncnc(N3CCC(C(=O)N(C)CC(=O)Nc4ccc(Cl)c(C(F)(F)F)c4)CC3)c2c1C	inactive
O=C(Nc1cccc(S(=O)(=O)NC2=NCCC2)c1)c1cc(-c2ccco2)nc2ccccc12	inconclusive: 31.6 µM [inhibitor, partial curve, poor fit]
COc1ccc(C(=O)c2ccccc2CN2C(=O)c3ccccc3C2=O)cc1	inconclusive: 3.16 µM [inhibitor, single point]
CCOC(=O)Cn1c2c(c(=N)c3c1CCC3)CCC2	inactive

SMILES	Potency
CC(C)(C)C(=O)Nc1cccc(C(=O)OCc2cc(=O)n3nc(C4CCCCC4)sc3n2)c1	inactive
O=C(O)Cc1sc(N/N=C\c2ccncc2)nc1-c1ccccc1	active: 3.16 µM
O=C(CCO)c1ccc(O)cc1	inconclusive: 79.4 µM [inhibitor, single point]
COc1cc(Cl)cc(C(c2c(C(=O)O)[nH]c3ccccc23)c2c(C(=O)O)[nH]c3ccccc23)c1O	inconclusive: 89.1 µM [inhibitor, single point]
N#C/C(=C\c1cccnc1)C(=O)Nc1cccc2ccccc12	inconclusive: 79.4 µM [inhibitor, partial curve]
CCOc1ccc(C2C(C#N)=C(N)Oc3cc(O)ccc32)cc1OCC (stereo not given)	inconclusive: 56.2 µM [inhibitor, partial curve]
Cc1ccc(NC(=S)Nc2cccc(-c3n[nH]c(=S)o3)c2)cc1	inconclusive: 22.4 µM [inhibitor, full curve]
Cc1cc(C)n(CCc2nc(-c3cc4ccccc4o3)cs2)n1	inactive
CN(C)S(=O)(=O)c1cccc(NC(=S)Nc2ccc(Cl)cc2Cl)c1	inconclusive: 14.1 µM [inhibitor, full curve, poor fit]
COc1ccc(NS(=O)(=O)c2cccc3nonc23)c(OC)c1	inconclusive: 17.8 µM [inhibitor, full curve]
COc1ccc(OC)c(C(c2c(C)[nH][nH]c2=O)c2c(C)[nH][nH]c2=O)c1	inactive
COCCNC(=O)C(=O)N/N=C(\C)CC(=O)Nc1cccnc1	inconclusive: 25.1 µM [inhibitor, partial curve, poor fit]
COc1cc(/C=N/N2CCCCC2)cc(OC)c1O	inconclusive: 39.8 µM [inhibitor, partial curve]
CCOc1cccc2sc(NC(=O)CCS(=O)(=O)c3ccccc3)nc12	inactive
O=C1C2C3CCCC3=C3CCCC3C2C(=O)N1c1ccccc1Cl (stereo not given)	inconclusive: 79.4 µM [inhibitor, single point]
Cc1ccc(OCc2nc3ccccc3n2Cc2ccccc2Cl)cc1	inactive
Cc1cccc(-n2nnnc2S(C)(=O)=O)c1	active: 1.78 µM
ClC(Cl)(c1nnnn1-c1ccccc1)c1nnnn1-c1ccccc1	inconclusive: 79.4 µM [inhibitor, single point]
O=C(NCCCn1ccnc1)c1cc(-c2cccs2)on1	inconclusive: 25.1 µM [inhibitor, full curve]
O=C(c1ccc(Br)o1)N1CC=C(c2ccccc2)CC1	inconclusive: 79.4 µM [inhibitor, partial curve]
CCn1c(C)cc(/C=C2/NC(=O)N(c3ccccc3)C2=O)c1C	inconclusive: 20 µM [inhibitor, partial curve, poor fit]
CCc1ccc(C(C(=O)NC2CCCC2)N(C(=O)/C=C/C(=O)Nc2cc(C)on2)c2ccccc2C)cc1 (stereo not given)	inconclusive: 39.8 µM [inhibitor, partial curve, poor fit]
CCN(c1ccccc1)c1nnc(NC(=O)Nc2ccc(C)cc2)s1	inactive
Cc1ccc(N2C(=O)CS(=O)C(c3ccccc3)C2=O)cc1C (stereo not given)	inconclusive: 15.8 µM [inhibitor, single point]

SMILES	Potency
COc1ccc(Nc2ncc3c(n2)CCN(Cc2ccc(Br)s2)C3)c(OC)c1	inactive
CC(C)=CCOc1ccc2c(C)c(CC(=O)N3C[C@H]4C[C@@H](C3)c3cccc(=O)n3C4)c(=O)oc2c1C	inconclusive: 89.1 µM [inhibitor, single point]
CSc1ccc(CCNC(=O)c2ccc(-n3c(C)cc4c3CCCC4)cc2)cc1	inactive
COC(=O)CC1C(=O)NCCN1C(=S)Nc1ccccc1Cl (stereo not given)	inconclusive: 31.6 µM [inhibitor, partial curve, poor fit]
CCOc1ccc2c(c1)[nH]c(=S)n2C	inconclusive: 7.08 µM [inhibitor, partial curve]
Cc1[nH]n(-c2ccccc2)c(=O)c1/C=N/NC(=O)c1cccc([N+](=O)[O-])c1	inactive
Cc1oc(-c2ccccc2Cl)[n+]([O-])c1C	inconclusive: 20 µM [inhibitor, partial curve]
COC(=O)c1nc(NC(=O)c2cc(OC)c(OC)c(OC)c2)n[nH]1	active: 39.8 µM
COc1cccc(-c2nc(=S)c3c(n2Cc2ccco2)CCCC3)c1	inconclusive: 12.6 µM [inhibitor, full curve]
Cc1oc(/C=N/NC(=O)CN(c2ccccc2Cl)S(C)(=O)=O)cc1Br	inconclusive: 56.2 µM [inhibitor, partial curve]
COc1ccc(NN=Nc2nc3c([nH]2)c(=O)n(C)c(=O)n3C)cc1	inconclusive: 15.8 µM [inhibitor, full curve]
CCOC(=O)CCS(=O)(=O)c1nc(-c2ccccc2)cc(C(F)(F)F)n1	active: 15.8 µM
Cc1ccc(C(=O)CCNc2cccc(Br)c2)o1	inconclusive: 20 µM [inhibitor, partial curve, poor fit]
COc1cccc(/C=C2\SC(=S)N(CCCC(=O)N3CCCCC3)C2=O)c1	inconclusive: 89.1 µM [inhibitor, single point]
COc1cccc(C(=O)c2cc3ccc(O)cc3oc2=O)c1	inconclusive: 50.1 µM [inhibitor, partial curve]
COc1cc(OC)c(Nc2c3c(nc4nc(-c5cccs5)nn24)CCCC3)cc1Cl	inactive
CCN(c1ccccc1)S(=O)(=O)c1nnc(NC(=O)c2ccco2)s1	inconclusive: 70.8 µM [inhibitor, single point]
Cc1ccccc1-c1nnc(SCC(=O)N2CCCCC2)o1	inactive
COc1ccc2sc(-c3ccc(SC)cc3)c(C#CC(C)(C)O)c2c1	inconclusive: 89.1 µM [inhibitor, single point]
CCN(CC)P(=O)(/C(Cl)=C\Nc1c(C)n(C)n(-c2ccccc2)c1=O)N(CC)CC	inconclusive: 3.16 µM [inhibitor, single point]
COCCCN=C(c1ccco1)n1c(=S)nc(-c2ccco2)n(CCCOC)c1=S	inconclusive: 39.8 µM [inhibitor, single point]
OCCN(Cc1ccccc1)CC1CC=CCC1 (stereo not given)	inconclusive: 25.1 µM [inhibitor, partial curve, poor fit]
